In the supplement of paper PMC3334620:
Over roughly 33,000 sequences, “E-score (-0.5 to 0.5)” has its median near -0.013; the highest 2% begin near 0.3. The list shows a part of the results.

molecular target: T1, Msn1 (UniProt P22148); experiment: PBM E-score (8-mer binding enrichment) (E-score (-0.5 to 0.5)); higher = stronger / more preferred TF binding; most listed sequences are background and not binding sites; details: protein concentration: 200 nM; construct: GST-full length
T1 sequence: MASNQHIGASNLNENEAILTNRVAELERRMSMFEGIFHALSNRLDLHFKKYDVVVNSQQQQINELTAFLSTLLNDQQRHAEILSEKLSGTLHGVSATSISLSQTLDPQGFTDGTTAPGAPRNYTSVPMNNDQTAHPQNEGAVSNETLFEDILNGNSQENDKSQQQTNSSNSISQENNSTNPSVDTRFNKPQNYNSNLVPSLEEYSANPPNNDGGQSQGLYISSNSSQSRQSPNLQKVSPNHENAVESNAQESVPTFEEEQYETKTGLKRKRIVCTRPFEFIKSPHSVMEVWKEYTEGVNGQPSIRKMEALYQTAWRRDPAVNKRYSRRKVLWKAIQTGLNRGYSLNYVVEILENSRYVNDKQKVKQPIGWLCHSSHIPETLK
Procedure, shortened: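 Each ungapped eight-base word and its reverse complement, pooled, received an E-score from the Universal PBM Analysis Suite. Underlying scans, normalised with masliner, recorded fluorescent anti-GST bound to GST-tagged yeast transcription factors. These were applied at about 100-200 nM to universal all-10-mer Agilent arrays double-stranded by primer extension.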

Sequence	PBM E-score
GCCAGTGA	-0.225
ATCCCTTC	-0.042
ACTCTCCA	-0.0814
AACGACGC	0.0174
CAACCCGC	-0.0999
CGCCCAAA	-0.031
AGTCGCAC	-0.21
AATTCTTG	0.127
CGATTCCC	-0.135
AGTGAGTG	-0.164
CTATACTC	-0.141
AGCCGCCC	-0.258
CTCGCGGC	-0.0921
CCGAACAG	0.0877
CGTGTAGC	-0.174
GATGAATC	0.0368
ACTCTAAC	-0.0496
ACAAAATA	0.188
CCGTAGTA	-0.0505
GGCTTCAA	-0.241
GCTGAACA	0.00499
ATACTGAT	0.1
CCTCGAAG	0.0737
AGGTTATA	0.103
ATAAAGTC	0.305

Sequence	PBM E-score
AGAAGGCT	-0.314
GGGAGTGA	-0.244
CTAACCAA	-0.0293
CCTGACCC	-0.0936
CAGCGCTA	-0.0965
TACGGTAA	-0.052
CAGGGTAC	-0.178
CAGCCGGC	-0.223
AACCCGAT	0.194
GCGCGCGC	0.333
GGCCCTAC	-0.163
GACCCCTC	-0.296
GACCACAC	-0.0566
CCTGAAAG	0.118
GATTGGTA	0.069
AGGCAACG	-0.279
CCTTCTCA	-0.277
CTTTGTGA	0.126
ACCCGGCC	-0.236
AAAGAGTA	-0.0873
AGCTTTGA	-0.0239
CGGAAGTC	0.152
TCGACGCA	0.15
CTGTCATC	0.0737
CATTAAGC	0.0171

Sequence	PBM E-score
AAACTCCG	0.162
GTATATAC	0.145
ACCTTTAA	-0.0272
AAATGAGG	-0.0423
GCCTCGCC	-0.267
ATGTCGAC	0.257
CTCGTCCA	0.121
AAGATCGA	0.0843
GTCATGAA	0.102
AATGTGAT	0.0196
AGGCTACT	-0.159
ACGGTCGC	-0.079
AGCGCACC	-0.0345
GTCGACCA	-0.0635
GATTCACC	-0.145
AGGGTGTA	-0.0323
CTGGCCCC	-0.324
CTACTGGC	-0.231
GGTCCACA	-0.0821
AACACTCG	0.0592
CTCTGAGC	-0.303
AAAGGACC	-0.105
ATGACCAA	0.0865
CTCCAGCA	-0.129
AATAGCGC	-0.0337

Sequence	PBM E-score
GGATAGCC	-0.189
GCCCCTAC	-0.317
AGTTAAAA	0.126
ACAAGGTA	-0.00849
CCGAACAC	0.105
TCGTAAGA	0.115
GTGTAACA	0.0781
ATTGCTAC	-0.0935
AAGAGAAT	0.164
AAGTGTTC	0.0151
CGGGAACC	-0.157
AAGTATGA	0.0528
GTAGTCAA	-0.00544
CATATCAC	0.066
ATTGTAGC	-0.0506
ATCTATCC	-0.0249
AGGTATCA	-0.119
CCTAGTTA	0.0465
CATCGTAG	-0.172
CCCACTCA	-0.238
GGCCATAC	0.133
ACGAGTCC	0.104
GGACCAAA	0.0741
ACGCTTAC	-0.137
AGGAACAA	0.0848

Sequence	PBM E-score
ACTAAGAA	0.102
TATGAGGA	-0.0153
AGTTCGGC	0.0736
TACATTGA	0.105
ACGTTACG	0.0842
TATCCCAA	0.159
ACGACACG	0.206
AGACTTAG	-0.112
GTAACCCA	0.0982
GTCACCAC	0.127
ACCAACGA	0.0241
CAAGGTCC	-0.105
AGCTTTCG	-0.0984
GCACAAGA	-0.0415
TCCCGAGA	0.0235
CAAGCCTA	-0.0333
CTTTGGAC	0.262
ATTCTCGG	0.2
CACTAGCG	-0.0765
CCAGGGTA	-0.247
GCGGGCTA	-0.185
ACGAGCAT	0.0161
CCGTACTA	0.0908
GATTACTA	0.025
AAACCCCG	0.0184

Sequence	PBM E-score
GAATCACC	0.0337
GTATCGCA	0.0994
CGGGACCG	-0.0676
CAGATATC	-0.0317
ACGGTGCC	-0.158
ACAAAGTC	0.236
AGTGTCAA	0.0192
ACTAGACT	-0.115
CCCGCACG	-0.203
ACCTAGGT	-0.238
AGTGAAAA	-0.0483
CCGCTGAC	-0.0504
CAGGTTTA	0.0966
AGCGATGA	0.0269
ATGAGAAA	0.137
TAAGACGA	-0.00272
ACTGGTCT	-0.25
CGCAGTTA	0.0767
AATAAGCC	-0.018
CCGCCTGA	-0.154
ATGAGCAT	0.017
AACCGACC	-0.0206
GAATAACC	-0.158
ATGCTGAG	-0.236
CAACGCAG	-0.182

Sequence	PBM E-score
GCCTGAAA	-0.0168
GCGCACCC	-0.15
ACACACGG	0.0261
GGGCGCCC	-0.0539
CGTCGGAG	0.00341
CTAATGCA	0.137
ATAAACCG	0.0472
CACGTCTC	-0.0251
GTAGCCGA	-0.264
CACCTGCA	-0.0399
ACAGACGC	0.00941
ACCCTTTC	-0.0752
GAACGTGA	0.0469
GCCTCGTA	0.107
CATGCTAA	-0.0237
GACGCTCC	-0.253
ATCAAAAG	0.169
CTAATATA	0.224
AAGACGCC	0.0234
AGGCCAGG	-0.101
CTGTCAAG	-0.104
CCTCAAAA	0.00278
